{"source": "PubChem BioAssay AID624296", "about": "(National Center for Advancing Translational Sciences (NCATS), 2012)", "note": "The whole screen tested about 350,000 compounds, of which about 9,900 (2.8%) were called active. Inconclusive means that the source gave no clear call. Such entries were picked first, then a sample of the others. The call rests on the fitted dose curve; in most records, active means well fitted activation curve with a large enough effect; inconclusive means small, poorly fitted or top-dose-only effect; inactive means no such curve, though single readings can be large or run the other way. No potency is given beside an inconclusive call; the fits are too rough. Potency means the concentration at half of the fitted maximal effect; tags describe the fitted curve by direction and shape.", "data": [{"assay": "A quantitative high throughput screen for small molecules that induce DNA re-replication in MCF 10a normal breast cells; further: nearly all actives have a fitted effect of over 50% in size; on activity, positive = re-replication: % of control where 0% means no effect.", "conditions": "MCF 10A DNA re-replication, Hoechst nuclear intensity, 48 h; activity, positive = re-replication: at 46.1 µM (top of the series)", "values": [{"compound": "CC(=O)c1ccc(NC(=O)CN2CCN(CC(=O)Nc3ccc(C(C)=O)cc3)CC2)cc1", "activity, positive = re-replication": "inactive: 3.21%"}, {"compound": "Cc1cc(C)cc(-n2ncc3c2CCCC3NC(=O)c2cc(C)[nH]n2)c1", "note": "(centres undefined)", "Potency": "inconclusive [activator, partial curve, poor fit]"}, {"compound": "O=C(Nc1ccc(S(=O)(=O)N2CCCC2)cc1)c1ccc([N+](=O)[O-])o1", "Potency": "active: 1.84 µM"}, {"compound": "COc1ccc(-n2c(O)c(/C=N/NS(=O)(=O)c3cc(C)ccc3C)c3ccccc3c2=O)cc1OC", "Potency": "inconclusive [activator, single point]"}, {"compound": "Cc1c(C2=CCN(S(=O)(=O)c3ccc(Br)cc3)CC2)c2ccccc2n1C", "Potency": "inconclusive [activator, single point]"}, {"compound": "CC(C)c1ccc(-c2nc(N3CCCCCC3)nc3n[nH]c(N)c23)cc1", "Potency": "inconclusive [activator, single point]"}, {"compound": "Cc1nn(CC(=O)Nc2ccc3c(c2)oc2ccccc23)c(=O)c2ccccc12", "Potency": "inconclusive [activator, single point]"}, {"compound": "CN1c2ccsc2/C(=N/Nc2ccc(F)cc2)CS1(=O)=O", "activity, positive = re-replication": "inactive: -3.28%"}, {"compound": "O=[N+]([O-])c1cc(S(=O)(=O)N2CCCC2)ccc1NCCc1ccccc1", "Potency": "inconclusive [activator, partial curve, poor fit]"}, {"compound": "CN(C)S(=O)(=O)c1cccc(N=c2scc(-c3ccc4c(c3)NC(=O)CO4)n2CC2CCCO2)c1", "note": "(centres undefined)", "activity, positive = re-replication": "inactive: 9.01%"}, {"compound": "O=C1COc2ccc(S(=O)(=O)N3CCN(c4cccc(C(F)(F)F)c4)CC3)cc2N1", "activity, positive = re-replication": "inactive: -1.47%"}, {"compound": "CCc1ccc2oc(-c3cccc(N)c3)nc2c1", "Potency": "inconclusive [activator, partial curve, poor fit]"}, {"compound": "C(=C\\c1ccco1)/C1=NN(c2ccccc2)C(c2ccco2)C1", "note": "(centres undefined)", "Potency": "active: 2.06 µM"}, {"compound": "COc1cc(C(=O)Nc2ccc(S(=O)(=O)Nc3cc(C)on3)cc2)cc(OC)c1OC", "Potency": "inconclusive [activator, partial curve, poor fit]"}, {"compound": "Cc1nc2ccccc2c(-c2ccccc2)c1C(=O)c1ccccc1", "Potency": "inconclusive [activator, single point]"}, {"compound": "CS(=O)(=O)N(Cc1ccco1)CC(O)Cn1c2ccccc2c2ccccc21", "note": "(centres undefined)", "Potency": "inconclusive [activator, single point]"}, {"compound": "CCOc1ccc(/C=N/Nc2ccc(Cl)nn2)c(O)c1", "Potency": "inconclusive [activator, full curve, poor fit]"}, {"compound": "COc1cccc(N2CCN(C3C4CC5CC(C4)CC3C5)CC2)c1", "note": "(centres undefined)", "Potency": "inconclusive [activator, partial curve, poor fit]"}, {"compound": "Cc1ccccc1CSCC(=O)N/N=C/c1cccs1", "activity, positive = re-replication": "inactive: 14.4%"}, {"compound": "Cc1ccc(SC(=O)c2c([N+](=O)[O-])c(C)nn2C)cc1", "Potency": "inconclusive [activator, single point]"}, {"compound": "NNC(=S)Nc1ccc(S(=O)(=O)N2CCOCC2)cc1", "activity, positive = re-replication": "inactive: -0.193%"}, {"compound": "CCCC1=C([O-])C2N=CC=CC2=[N+](c2ccccn2)C1=O", "note": "(centres undefined)", "activity, positive = re-replication": "inactive: -10.5%"}, {"compound": "Cc1ccc(C(=O)Nc2sc3c(c2C(=O)O)CCC(C)C3)o1", "note": "(centres undefined)", "activity, positive = re-replication": "inactive: 0.531%"}, {"compound": "CC(=O)c1csc(-c2cccc(-c3nc4ccc(Cl)cn4c3NC3CCCCC3)c2)c1", "Potency": "inconclusive [activator, single point]"}, {"compound": "O=C1C=C(NCc2ccc3c(c2)OCO3)CC(c2ccccc2)C1", "note": "(centres undefined)", "Potency": "inconclusive [activator, single point]"}, {"compound": "O=C1CCCC2=C1C1c3ccccc3C(=O)N1c1ccc(C(=O)c3ccccc3)cc1N2", "note": "(centres undefined)", "Potency": "inconclusive [activator, single point]"}, {"compound": "O=C(CCSc1ccc(Cl)c(Cl)c1)NC12CC3CC(CC(C3)C1)C2", "Potency": "active: 18.4 µM"}, {"compound": "CCn1c(C)c(C(C)=O)c(N2CCC(C(N)=O)CC2)nc1=S", "Potency": "inconclusive [activator, single point]"}, {"compound": "NS(=O)(=O)c1ccc(NC(=S)N2CCN(c3ccc(Cl)c(Cl)c3)CC2)cc1", "Potency": "inconclusive [activator, single point]"}, {"compound": "COc1cccc(N2CCN(C(=O)c3ccc(CS(=O)c4ccc(C)cc4)o3)CC2)c1", "note": "(centres undefined)", "Potency": "inconclusive [activator, full curve, poor fit]"}, {"compound": "CCOc1ccccc1NC(=O)N1CCc2ccccc2C1", "activity, positive = re-replication": "inactive: 4.2%"}, {"compound": "CC(O)CCCCn1c(=O)c2c(ncn2C)n(C)c1=O", "note": "(centres undefined)", "activity, positive = re-replication": "inactive: 2.26%"}, {"compound": "CSc1cccc(NC(=O)c2ccc(CN3CCc4ccccc4C3)cc2)c1", "Potency": "inconclusive [activator, single point]"}, {"compound": "COc1ccc(OC)c(S(=O)(=O)N2c3cc(F)ccc3CCC2C)c1", "note": "(centres undefined)", "Potency": "inconclusive [activator, partial curve, poor fit]"}, {"compound": "COc1cc2c(cc1OC)-c1c(OC)c(OC)cc3ccnc(c13)C2=O", "Potency": "inconclusive [activator, partial curve]"}, {"compound": "CN(C)c1ccc(-c2nc3ccccn3c2/N=C/c2ccc(Br)cc2)cc1", "activity, positive = re-replication": "inactive: -1.89%"}, {"compound": "Oc1ccc(F)cc1-c1cc(-c2ccc3c(c2)OCCO3)n[nH]1", "Potency": "inconclusive [activator, single point]"}, {"compound": "CCOc1ccccc1NC(=O)CSc1nc2cc(O)ccc2c(=O)n1-c1ccc(OC)c(OC)c1", "Potency": "inconclusive [activator, single point]"}, {"compound": "COc1ccc(NC(=O)CSc2cc(C)nc3c(-c4ccccc4)cnn23)cc1", "Potency": "active: 9.2 µM"}, {"compound": "Cc1nc(SCC(=O)Nc2cc(C)on2)c2c3c(sc2n1)CCCC3", "Potency": "inconclusive [activator, single point]"}, {"compound": "CCOC(=O)c1sc(N2C(=O)C(O)=C(C(=O)c3ccco3)C2c2cccc([N+](=O)[O-])c2)nc1C", "note": "(centres undefined)", "Potency": "inconclusive [activator, single point]"}, {"compound": "CC1=NN(C(=O)c2ccncc2)C(=O)C1N=Nc1ccc2ccccc2c1", "note": "(centres undefined)", "activity, positive = re-replication": "inactive: 11.8%"}, {"compound": "CCC(C)c1nc2c(c(N3CCC3=O)c1-c1ccccc1)CCCC2", "note": "(centres undefined)", "activity, positive = re-replication": "inactive: -3.48%"}, {"compound": "CCCCS/C(N)=N/N=C/c1ccccc1O", "Potency": "inconclusive [activator, single point]"}, {"compound": "Cc1c(NC(=O)C(C)Oc2ccccc2F)c(=O)n(-c2ccccc2)n1C", "note": "(centres undefined)", "activity, positive = re-replication": "inconclusive: -53.5% [activator]"}, {"compound": "Cc1cc(C)n(-c2ccc(C(=O)Nc3ccc(C)c(S(=O)(=O)N(C)C)c3)cc2)n1", "activity, positive = re-replication": "inactive: -7.12%"}, {"compound": "Cc1cccc(C(=O)NCC(=O)N2CCC2)c1", "activity, positive = re-replication": "inactive: 20%"}, {"compound": "O=C1/C(=C/c2cccnc2)CCc2c1[nH]c1ccccc21", "Potency": "inconclusive [activator, single point]"}, {"compound": "O=c1[nH]cnc2sc(-c3ccccc3)cc12", "activity, positive = re-replication": "inactive: 2.16%"}, {"compound": "COc1ccc(C2SCCN2S(=O)(=O)c2ccccc2)cc1", "note": "(centres undefined)", "Potency": "inconclusive [activator, single point]"}, {"compound": "S=C(Nc1ccccn1)NC1CCCCC1", "activity, positive = re-replication": "inactive: 1.32%"}, {"compound": "CCSc1nsc(NC(=O)Nc2ccccc2Cl)n1", "Potency": "inconclusive [activator, single point]"}, {"compound": "CN(C)c1ccc(NC(=O)CSc2n[nH]c(-c3ccncc3)n2)cc1", "activity, positive = re-replication": "inactive: -0.706%"}, {"compound": "O=C(Cn1cnc2ccccc21)N/N=C/C(Br)=C/c1ccccc1", "Potency": "inconclusive [activator, single point]"}, {"compound": "CCN(CC)P(=O)(Nc1ccc([N+](=O)[O-])cc1)c1c(C)nn(CCC#N)c1NC(=O)c1ccc(Cl)cc1", "note": "(centres undefined)", "activity, positive = re-replication": "inactive: 3.82%"}, {"compound": "Cc1cc(C)c2nc(N3CCCC(C(=O)NC4CCCC4)C3)sc2c1", "note": "(centres undefined)", "activity, positive = re-replication": "inactive: 12.9%"}, {"compound": "O=C(Nc1nc2cc3c(cc2s1)OCCO3)c1ccco1", "Potency": "inconclusive [activator, full curve, poor fit]"}, {"compound": "O=C(NC(C(=O)N/N=C/c1cc([N+](=O)[O-])ccc1O)c1n[nH]c(=O)c2ccccc12)c1ccccc1", "note": "(centres undefined)", "Potency": "inconclusive [activator, partial curve, poor fit]"}, {"compound": "Cc1nn(-c2ccccc2)c(C)c1/C=N/n1c(-c2ccccc2Br)n[nH]c1=S", "Potency": "inconclusive [activator, single point]"}, {"compound": "COc1ccc(-c2oc(NC(C)=O)c(C#N)c2-c2ccc(OC)cc2)cc1", "Potency": "inconclusive [activator, single point]"}, {"compound": "COc1ccc(-n2nnnc2S(=O)(=O)CC(=O)N2CCCCC2)cc1", "Potency": "active: 7.31 µM"}, {"compound": "COc1ccc(C2(c3ccc(OC)cc3)NC(=O)N(CC(=O)NCC(C)c3ccccc3)C2=O)cc1", "note": "(centres undefined)", "Potency": "inconclusive [activator, single point]"}, {"compound": "Nc1nc(NCc2ccccc2)nc(NCCO)c1[N+](=O)[O-]", "Potency": "inconclusive [activator, single point]"}, {"compound": "COc1ccccc1N1C(=O)S/C(=C\\c2cc(C)n(C)c2C)C1=O", "Potency": "inconclusive [activator, partial curve, poor fit]"}, {"compound": "Cc1onc(-c2c(F)cccc2Cl)c1C(=O)OCC(=O)N1C(C)CCCC1C", "note": "(centres undefined)", "Potency": "inconclusive [activator, partial curve, poor fit]"}, {"compound": "CC(=O)c1c(C)[nH]c(C(=O)Nc2cccc(S(=O)(=O)N3CCOCC3)c2)c1C", "Potency": "inconclusive [activator, single point]"}, {"compound": "O=C1c2ccccc2C(=O)N1CCc1c(-c2ccccc2)[nH]c2ccccc12", "Potency": "inconclusive [activator, single point]"}, {"compound": "CCC(Sc1nc2sc(C(=O)OC)c(C)c2c(=O)n1N)C(=O)NCC1CCCO1", "note": "(centres undefined)", "activity, positive = re-replication": "inactive: -10.7%"}, {"compound": "COc1ccc(C2CC(O)(c3ccccc3)Oc3cc(OC)ccc32)cc1", "note": "(centres undefined)", "Potency": "inconclusive [activator, single point]"}]}]}
